Laboratory results published in patent publication US20190330347A1 (published 2019).

Biological target: biotin-labeled PD-1 antigen (UniProt Q15116 fragment, biotin-labeled (site not stated))
Experiment: BLI (Fortebio)

Chain of UniProt Q15116 (Q15116 25-167): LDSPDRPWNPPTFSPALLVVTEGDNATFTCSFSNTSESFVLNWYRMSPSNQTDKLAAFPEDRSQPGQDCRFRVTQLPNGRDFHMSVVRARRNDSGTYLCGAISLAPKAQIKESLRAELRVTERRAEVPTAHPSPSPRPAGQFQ

Kd: 0.27 nM
B1: humanized H2L2 antibody (wild-type IgG-like antibody H2L2 against PD-1) (antibody)
heavy: EVQLVQSGGGLVQPGGSLKLSCAASGFTFSSYGMSWVRQAPGKGLDWVATISGGGRDTYYPDSVKGRFTISRDNSKNNLYLQMNSLRAEDTALYYCARQKGEAWFAYWGQGTLVTVSSASTKGPSVFPLAPCSRSTSESTAALGCLVKDYFPEPVTVSWNSGALTSGVHTFPAVLQSSGLYSLSSVVTVPSSSLGTKTYTCNVDHKPSNTKVDKRV[human IgG4 Fc with S228P (EU numbers) left out here]
light: DIVLTQSPASLAVSPGQRATITCRASESVDNYGISFMNWFQQKPGQPPKLLIYAASNKGTGVPARFSGSGSGTDFTLNINPMEENDTAMYFCQQSKEVPWTFGGGTKLEIKRTVAAPSVFIFPPSDEQLKSGTASVVCLLNNFYPREAKVQWKVDNALQSGNSQESVTEQDSKDSTYSLSSTLTLSKADYEKHKVYACEVTHQGLSSPVTKSFNRGEC
